From PubChem BioAssay AID488969 (Vanderbilt High Throughput Screening Facility, 2010)
Over roughly 110,000 compounds, “z-score” has its median near -0.1; the highest 2% begin near 2. The list shows a part of the results. Calls of active or inactive are those of the source.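 The calls were made as follows: active = z-score in the third read window above 3 or below -3; inactive = the rest.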

The compounds below were run against Metabotropic glutamate receptor 8 (Rattus norvegicus) (UniProt P70579) (assay: rat mGluR8 modulators via GIRK flux, primary screen, cell-based, thallium flux, HTS (AID 488969)). Conditions: HEK293 rat mGluR8, GIRK (G protein-gated inwardly rectifying potassium channel) thallium flux, FluoZin2; at 10 µM; stronger effect = higher value; submaximal glutamate (EC20) added with thallium.
Sequence of UniProt P70579 (P70579 whole entry, looked up): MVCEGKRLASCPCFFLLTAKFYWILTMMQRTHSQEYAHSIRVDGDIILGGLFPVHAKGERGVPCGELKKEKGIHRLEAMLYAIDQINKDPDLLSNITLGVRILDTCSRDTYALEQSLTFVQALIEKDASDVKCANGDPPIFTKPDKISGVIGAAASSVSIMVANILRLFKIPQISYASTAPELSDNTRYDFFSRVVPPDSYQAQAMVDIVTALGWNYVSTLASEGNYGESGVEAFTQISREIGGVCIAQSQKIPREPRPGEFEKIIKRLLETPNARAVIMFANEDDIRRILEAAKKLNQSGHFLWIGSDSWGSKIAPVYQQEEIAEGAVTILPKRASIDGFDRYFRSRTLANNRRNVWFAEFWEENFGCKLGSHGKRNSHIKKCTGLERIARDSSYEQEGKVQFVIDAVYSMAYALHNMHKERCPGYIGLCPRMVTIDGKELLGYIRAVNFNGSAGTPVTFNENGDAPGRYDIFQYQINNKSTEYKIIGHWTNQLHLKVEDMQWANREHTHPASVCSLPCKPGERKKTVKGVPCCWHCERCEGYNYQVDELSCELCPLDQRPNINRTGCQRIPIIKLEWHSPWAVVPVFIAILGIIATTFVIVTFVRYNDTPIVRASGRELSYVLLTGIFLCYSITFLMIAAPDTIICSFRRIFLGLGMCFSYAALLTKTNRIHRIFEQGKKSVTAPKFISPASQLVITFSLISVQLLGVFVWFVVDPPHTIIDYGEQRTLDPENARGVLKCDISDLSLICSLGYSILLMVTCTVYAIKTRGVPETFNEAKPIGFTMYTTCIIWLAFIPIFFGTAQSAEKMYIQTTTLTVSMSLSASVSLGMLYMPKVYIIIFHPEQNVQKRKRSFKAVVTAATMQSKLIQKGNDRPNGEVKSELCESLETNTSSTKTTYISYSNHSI
Nc1cccc(-c2nc3cc(S(=O)(=O)c4ccc5oc(-c6cccc(N)c6)nc5c4)ccc3o2)c1 gave a z-score of 0.0642. COc1ccc(S(=O)(=O)N(CC(=O)N2CCN(c3ccccc3)CC2)c2ccccc2)cc1 gave a z-score of 2.25. Cc1cccc(Nc2nc(N)nc(CSc3nccn3C)n2)c1 was tested, and the z-score was -0.137. With c1ccc(-c2noc(-c3cccs3)n2)nc1 the z-score was -0.107. Cc1cc(Cl)ccc1OCC(=O)N1C(C)CCCC1C (configuration not stated) showed a z-score of -0.44. For COc1ccc(CNC(=O)CSCc2cnn(-c3ccccc3)c2-n2cccc2)cc1, the z-score was 0.0302. Cn1nnnc1P(=O)(c1ccccc1)c1ccccc1 gave a z-score of 0.198. Compound CCOC(=O)c1c(N)nn(C(=O)C(C)C)c1-c1ccccc1 has a z-score of -0.103. O=C(NCc1cccnc1)c1cnn2ccccc12 was tested, and the z-score was 0.158. For COCCNC(=O)CN(Cc1ccc(Cl)cc1)S(C)(=O)=O, the z-score was -0.0327. In the case of COc1ccc(OC)c(Nc2ccc(Nc3cc(OC)ccc3OC)nn2)c1, the z-score is reported as -0.125. For COc1ccc(C(=O)Nc2ccccc2C(=O)NC(C(=O)NCc2ccco2)C(C)C)cc1 (configuration not stated), the z-score was -0.474. In the case of O=c1c2ccccc2nc(-c2ccccc2)n1CCN1CCOCC1, the z-score is reported as -0.677. Compound Cc1ccc(-c2cc(C(F)F)nc(N3CCC(C)CC3)n2)cc1 has a z-score of -0.269. With Fc1ccc(CO/N=C/C2=C(Cl)c3ccccc3CC2)cc1 the z-score was 1.72. COc1ccc(Br)cc1S(=O)(=O)N1CCOCC1 was tested, and the z-score was -0.1. Work on O=C(NCCCn1ccnc1)Nc1cccc2ccccc12 yielded a z-score of 1.54. Compound Cc1ccc(OCc2nnc(SCC(=O)Nc3nccs3)n2-c2ccccc2)cc1C has a z-score of -0.17. Cn1cc(-c2nnnn2-c2ccc(Cl)cc2)c(=O)c2ccccc21 gave a z-score of -0.238. Work on CCOC(=O)C1=C(C)NC2(O)c3ccccc3C(=O)C12O (configuration not stated) yielded a z-score of 0.868. Cc1ccc(-c2ccc(CCC(=O)O)n2C(C)C)cc1 showed a z-score of -0.00219. For CC(=O)c1ccccc1NC(=O)COC(=O)c1ccccc1NC(=O)c1ccccc1, the z-score was 0.161. With Cc1ccc(-c2[nH]nc3c2C(c2ccc(OC(=O)N4CCOCC4)cc2)C(C#N)=C(N)O3)cc1 (configuration not stated) the z-score was -0.378. Cc1ccc(/C=N/NC(=O)CSc2nc3ccccc3c(=O)n2-c2ccccc2)s1 was tested, and the z-score was -0.182. Work on O=c1c2cn[nH]c2nc(SCc2ccc3c(c2)OCCO3)n1-c1ccccc1 yielded a z-score of -0.345. COc1cc(C2NC(=O)NC(c3ccccc3)=C2C(C)=O)ccc1OCC(=O)O (configuration not stated) showed a z-score of 0.117. For Clc1ccc(OCCN2CCOCC2)cc1Cl, the z-score was 0.403. O=C(/C=C/c1ccc(Br)o1)OCc1ccccc1 was tested, and the z-score was 1.52. CCCNS(=O)(=O)c1ccc(CCC(=O)N2CCCCC2)cc1 showed a z-score of -0.193. Compound CCOC(=O)c1sc2nc3c(cc2c1N)COC(C(C)C)C3 (configuration not stated) has a z-score of -0.804. For c1ccc2c(-c3nnc4n3CCCCC4)cc(-c3ccncc3)nc2c1, the z-score was 0.284. Cc1ccc(CNC(=O)C2c3ccccc3C(=O)N(C)C2c2c[nH]c3ccccc23)o1 (configuration not stated) was tested, and the z-score was -0.464. Cc1ccc(S(=O)(=O)N2CCCC(C(=O)Nc3cccnc3)C2)cc1 (configuration not stated) gave a z-score of -0.0543. In the case of O=C(Nc1ccc(N2CCOCC2)cc1)C1CC1, the z-score is reported as 0.35. In the case of COC(=O)c1ccc(NCCc2csc(-c3ccc(C)cc3)n2)c([N+](=O)[O-])c1, the z-score is reported as -0.401. For COc1ccc(NC(C)=O)cc1NC(C)C(=O)Nc1ccc(F)c(F)c1F (configuration not stated), the z-score was -1.29. Work on S=C(NCc1ccccn1)Nc1ccc(Cl)cc1Cl yielded a z-score of -0.0135. For COc1ccc(C(=O)N2CCc3cc(OC)c(OC)cc3C2c2cccc([N+](=O)[O-])c2)cc1OC (configuration not stated), the z-score was -0.216. CCOc1ccc(-n2c(SCC(=O)Nc3ccc4c(c3)OCO4)nc3ccccc3c2=O)cc1 gave a z-score of -0.538. Cc1nc2sccn2c1-c1nc(-c2cc3ccccc3o2)cs1 showed a z-score of -0.563. CCCc1nc2sc3c(=O)n(N)cnc3c2c2c1COC(C)(C)C2 was tested, and the z-score was -0.29. In the case of CCCc1nc2oc3c(OC)ncnc3c2c2c1COC(C)(C)C2, the z-score is reported as -0.224. O=C(Cc1ccc(Cl)cc1)Nc1ccc(N2CCN(C(=O)c3ccco3)CC2)c(Cl)c1 gave a z-score of 2.13. Work on Fc1ccccc1C(c1nnnn1C1CCCC1)N1CCN(Cc2ccccc2)CC1 (configuration not stated) yielded a z-score of 0.671. With COc1cccc(N=Nc2c(N)[nH][nH]c2=O)c1 the z-score was -0.199. CCOC(=O)N1CCN(C(=O)c2ccccc2NC(=O)COc2ccccc2C)CC1 was tested, and the z-score was 0.774. Cc1ccc2c(C)nc(N/C(N)=N/S(=O)(=O)c3ccc([N+](=O)[O-])cc3)nc2c1 gave a z-score of -0.286. CCn1c(COc2ccccc2)nnc1SCC(=O)c1cccc([N+](=O)[O-])c1 was tested, and the z-score was -0.246. O=C(COC(=O)c1cccnc1Nc1ccccc1F)NC1CC1 showed a z-score of -0.132. Compound O=C(/C=C/c1ccccc1)NCCN1CCOCC1 has a z-score of -0.165. For CN(C(=O)COC(=O)c1ccc(Cl)cc1N)C1CCS(=O)(=O)C1 (configuration not stated), the z-score was -0.285. With COc1cc(Cn2c(N)c(C#N)c3nc4ccccc4nc32)cc(OC)c1 the z-score was -0.479. O=C(NCc1ccc(Cl)c(Cl)c1)c1cccnc1 was tested, and the z-score was 0.88. Work on O=S(=O)(NCc1cc(-c2ccc(Cl)cc2)no1)c1ccccc1 yielded a z-score of -0.194. COc1cccc(/C=N/NC(=O)c2cc(C34CC5CC(CC(C5)C3)C4)[nH]n2)c1 gave a z-score of -0.105. COCCNC(=O)C(c1ccc(C)o1)N(Cc1cccs1)C(=O)c1snc(C(N)=O)c1N (configuration not stated) was tested, and the z-score was -0.381. With CCCNC(=O)C1CCN(S(=O)(=O)c2ccc(-c3nn[nH]n3)cc2)CC1 the z-score was -0.171. In the case of Cc1ccc(-n2nc(C)c(NS(=O)(=O)c3ccccc3)c2C)cc1C, the z-score is reported as -0.924. Work on O=C(c1cccnc1)N1C2C=CC(C2)C1(C(F)(F)F)C(F)(F)F (configuration not stated) yielded a z-score of 0.0938. Work on COc1ccc(N2CCN(C(=O)COc3ccc4ccccc4c3)CC2)cc1 yielded a z-score of -0.993. Work on CCOc1ccc(NC(=O)CN(c2ccc([N+](=O)[O-])cc2)S(=O)(=O)c2ccccc2)cc1 yielded a z-score of 0.196. In the case of CCCn1nnnc1-c1cc(Cl)cc(Cl)c1, the z-score is reported as 0.41. Work on COc1ccc(OC)c(S(=O)(=O)n2ccnc2C)c1 yielded a z-score of 0.384. c1ccc(C[n+]2cccc3c4ccccc4ccc32)cc1 was tested, and the z-score was -0.0839. In the case of COC(=O)COc1cc(OCC(=O)OC)c2c(C)c(Cl)c(=O)oc2c1, the z-score is reported as -0.142. In the case of O=C(COC(=O)C12CC3CC(CC(C3)C1)C2)Nc1ccc(OC(F)F)cc1, the z-score is reported as -0.271. For CCOc1ccc2c(c1)sc(=NC(=O)C1CC1)n2C, the z-score was -0.83. For CC(C)(CNC(=S)NCCc1ccccc1)CNC(=S)NCCc1ccccc1, the z-score was 0.891. For CC(NC(=O)C1(c2cccs2)CCOCC1)c1ccccc1 (configuration not stated), the z-score was 0.798. Compound O=C(O)C1CCN(Cc2cnn(-c3ccccc3)c2-n2cccc2)CC1 has a z-score of 0.0466. With CC(C)N(C(=O)CSc1nc2ccccc2n1Cc1ccccc1)C(C)C the z-score was -0.561. Compound CCOc1ccc(OCC(=O)N2CCOCC2)cc1 has a z-score of -0.0495. Compound O=C1C(Cl)=C(N2CCCCC2)C(=O)N1Cc1ccccc1 has a z-score of -0.114. For Cc1cc([N+](=O)[O-])cc2c1-c1ncccc1C2=Nc1ccccc1, the z-score was -0.213. Cn1c(SCc2ccccc2)nnc1-c1cnccn1 was tested, and the z-score was -0.0243. O=C(COc1ccccc1Br)NC1CCCC1 showed a z-score of -0.0181. For CNCCCC12CCC(c3ccccc31)c1ccccc12, the z-score was 0.715. Work on CN1CCN(NS(=O)(=O)c2cccs2)CC1 yielded a z-score of 0.111. O=C(NC1CC2CCCC(C1)N2S(=O)(=O)c1ccccc1)C1CCCCC1 (configuration not stated) gave a z-score of -0.223. CC(=O)c1cccc(NC(=S)NC(=O)c2ccccc2Br)c1 was tested, and the z-score was 1.09. With COc1ccc(C(=O)NC(=S)NNC(=O)CCc2ccccc2)cc1 the z-score was active: 3.38. Work on COc1cccc(C(=O)NC(C)c2ccc(Br)cc2)c1 (configuration not stated) yielded a z-score of -0.143. CCOC(=O)N1CCN(CC(=O)c2ccc3c(c2)CCN3C(C)=O)CC1 gave a z-score of -0.036. Cc1c(/C=N/NC(N)=O)c2ccccn2c1C(=O)c1ccc(F)cc1 showed a z-score of -0.327. For COc1cccc(CC(NC(C)=O)C(=O)NC2CCN(c3nc(C)cc(C)c3C#N)CC2)c1 (configuration not stated), the z-score was 0.0161. With COc1cccc(NC(=O)c2ccn(C)n2)c1 the z-score was 0.125. For O=c1[nH]n(-c2ccc(Cl)cc2)c(=O)c(Cl)c1Cl, the z-score was 0.0334. With CCOC(=O)c1cc(C)nn1-c1nc(Cl)cc(OC)n1 the z-score was -0.255. With CCOc1cc(CNc2ccc(CNc3ncn[nH]3)cc2)ccc1OCc1ccccc1 the z-score was -0.171. Compound Cc1[nH]oc(=O)c1N=Nc1ccccc1 has a z-score of -0.0444. Compound CCn1c(=O)c(-[n+]2ccccc2)c(O)c2ccccc21 has a z-score of -0.561. With COCCNC(=O)C(c1ccco1)N(C(=O)Cn1nnc2ccccc21)c1ccccc1C (configuration not stated) the z-score was -1.02. For Cc1ccc(-c2nnc(CSc3nc(C(C)C)nc4sc(C)c(C)c34)o2)cc1, the z-score was 1.42. For Cc1ccc(C(=O)NC(NC(=O)c2ccc(C)cc2)C(Cl)Cl)cc1, the z-score was -0.154. With Cc1ccccc1Cn1nc(C)c(NC(=O)c2noc3c2CC(C(C)(C)C)CC3)c1C (configuration not stated) the z-score was 0.856. Cc1ccc(C(=O)Nc2cc(C(F)(F)F)ccc2N2CCCCC2)cc1[N+](=O)[O-] showed a z-score of -0.837. c1ccc(Nc2nc(-c3ccccn3)cs2)cc1 gave a z-score of -0.545. With Cn1c(=O)oc2cc(S(=O)(=O)N3CCC(C(=O)N4CC=C(c5ccccc5)CC4)CC3)ccc21 the z-score was -0.11. OCCN=c1cc(-c2ccccc2)oc2ccc(Cl)cc12 showed a z-score of 0.389. CN(Cc1ccco1)C(=O)C(Cc1ccccc1)NS(=O)(=O)c1ccc2c(c1)CCC(=O)N2 (configuration not stated) gave a z-score of 0.269. In the case of CCOc1ccc(NC(=O)CNC(=O)c2ccc(OC)c(OC)c2)cc1, the z-score is reported as -0.166. With COc1cccc(NC(=O)COC(=O)c2nc3nccc(C)n3n2)c1 the z-score was -0.0168. Work on CCCCC1(C)NC(=O)N(CC(=O)Nc2ccc(S(=O)(=O)N3CCOCC3)cc2)C1=O (configuration not stated) yielded a z-score of -0.0271. With O=C(Nc1ccc(CN2CCOCC2)cc1)c1cc2ccccn2n1 the z-score was active: 4.59. O=C(NCCCN1CCCC1=O)c1cccc(N2CCCC2=O)c1 showed a z-score of -0.337. CCOC(=O)Cc1cc(-c2ccccc2)nc2ccc3ccccc3c12 was tested, and the z-score was 0.252. S=C1NCCOCCOCCOCCOCCN1 showed a z-score of 0.074. CCn1c(-c2cc(Cl)ccc2OC)n[nH]c1=S showed a z-score of -0.0735. Cc1noc(C)c1C(=O)Nc1sc(C)c(C)c1C#N was tested, and the z-score was 0.0125. Cc1c(C=O)c(=O)n(-c2ccccc2)n1-c1ccccc1 showed a z-score of -0.0631. With Cc1ccc2c(CC(=O)NC3CCCc4ccccc43)coc2c1 (configuration not stated) the z-score was active: 4.11. O=C(CSCc1ccccc1Cl)NNC(=S)Nc1ccccc1 gave a z-score of 0.00173.
